# The supplement of paper PMC4604168 (melanoma cell lines)
# This is one part of the list. Most values come without repeats; read them as rough.
# Tested on: IPC-298
# Experiment: cell count relative to DMSO control; melanoma cells; higher = more viable cells
# Conditions: library dose: low library concentration; 72 h
# 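Further: cell number obtained by counting DAPI-stained nuclei in high-throughput microscope images with image analysis software, screen run in 1,536-well plates.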
row,Compound,cell count
1,"COc1ccc(COc2ccc(Cc3cnc(N)nc3N)cc2OC)cc1 + Cc1cc(SCc2sc(-c3ccc(C(F)(F)F)c(F)c3)nc2C)ccc1OCC(=O)O [GW0742] (first compound 1 µM, partner dose 2 µM)",94.6%
2,"Clc1ccc(Nc2nnc(Cc3ccncc3)c3ccccc23)cc1 [vatalanib] + C[As](C)SC[C@H](NC(=O)CC[C@H](N)C(=O)O)C(=O)NCC(=O)O [Darinaparsin] (first compound 2 µM, partner dose 0.4 µM)",93.5%
3,"COc1ccc(COc2ccc(Cc3cnc(N)nc3N)cc2OC)cc1 + C/C(O)=C(\C#N)C(=O)Nc1cc(Br)ccc1Br [LFM-A13] (first compound 1 µM, partner dose 2 µM)",113%
4,"COCC[n+]1c2c(n(Cc3cnccn3)c1C)C(=O)c1ccccc1C2=O + Cc1cc(SCc2sc(-c3ccc(C(F)(F)F)c(F)c3)nc2C)ccc1OCC(=O)O [GW0742] (first compound 0.0004 µM, partner dose 2 µM)",97.3%
5,"O=C(CCCCCCC(=O)Nc1ccccc1)NO [vorinostat] + Cc1cc(SCc2sc(-c3ccc(C(F)(F)F)c(F)c3)nc2C)ccc1OCC(=O)O [GW0742] (first compound 0.08 µM, partner dose 2 µM)",93.8%
6,"Cc1cc(Nc2cc(N3CCN(C)CC3)nc(Sc3ccc(NC(=O)C4CC4)cc3)n2)n[nH]1 [Tozasertib] + C[C@]12O[C@H](C[C@]1(O)CO)n1c3ccccc3c3c4c(c5c6ccccc6n2c5c31)CNC4=O [Lestaurtinib] (first compound 0.006 µM, partner dose 0.004 µM)",94.9%
